These results are taken from publication PMC11967829.

Sequences of proteins named here, by UniProt entry; tags and fusion partners are left off. A change or cut given only in a name is not applied to a line headed by its entry. A line that says so, or that is headed by a name, gives the form on record, which may keep a tag or linker.
UniProt P14618: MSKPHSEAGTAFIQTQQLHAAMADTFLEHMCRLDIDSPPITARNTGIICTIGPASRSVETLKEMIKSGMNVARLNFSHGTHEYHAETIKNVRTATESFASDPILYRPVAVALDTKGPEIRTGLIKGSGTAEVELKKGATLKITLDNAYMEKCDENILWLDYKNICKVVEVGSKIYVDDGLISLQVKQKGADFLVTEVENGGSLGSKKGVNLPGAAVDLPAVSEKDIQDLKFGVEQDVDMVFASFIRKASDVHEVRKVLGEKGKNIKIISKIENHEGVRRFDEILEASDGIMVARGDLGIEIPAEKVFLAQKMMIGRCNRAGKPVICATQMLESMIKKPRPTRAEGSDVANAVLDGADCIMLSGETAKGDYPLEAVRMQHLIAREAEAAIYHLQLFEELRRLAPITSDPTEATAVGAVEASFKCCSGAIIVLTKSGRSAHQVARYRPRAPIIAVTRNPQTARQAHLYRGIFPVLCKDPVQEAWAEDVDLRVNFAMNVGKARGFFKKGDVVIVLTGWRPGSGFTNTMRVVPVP
purified recombinant PKM1 (P14618, form named): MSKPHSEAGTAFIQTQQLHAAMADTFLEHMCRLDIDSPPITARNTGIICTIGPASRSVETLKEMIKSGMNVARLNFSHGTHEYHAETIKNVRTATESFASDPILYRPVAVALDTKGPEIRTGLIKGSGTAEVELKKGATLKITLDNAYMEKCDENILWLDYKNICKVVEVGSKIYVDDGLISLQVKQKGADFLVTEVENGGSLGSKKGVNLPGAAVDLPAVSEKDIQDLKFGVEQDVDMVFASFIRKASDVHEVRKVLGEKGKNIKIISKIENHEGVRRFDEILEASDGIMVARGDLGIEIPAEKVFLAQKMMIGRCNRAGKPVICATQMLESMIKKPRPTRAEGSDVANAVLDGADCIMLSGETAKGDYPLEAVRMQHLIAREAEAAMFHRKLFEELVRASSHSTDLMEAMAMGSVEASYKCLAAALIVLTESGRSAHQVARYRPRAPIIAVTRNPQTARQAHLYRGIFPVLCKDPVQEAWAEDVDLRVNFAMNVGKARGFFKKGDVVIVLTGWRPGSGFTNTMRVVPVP
PKM1 241-408 AA region (P14618, form named): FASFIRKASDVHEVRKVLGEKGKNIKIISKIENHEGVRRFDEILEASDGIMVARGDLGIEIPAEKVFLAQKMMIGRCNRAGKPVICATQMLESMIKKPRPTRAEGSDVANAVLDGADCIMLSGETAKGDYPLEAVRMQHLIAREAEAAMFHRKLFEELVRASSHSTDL

Numbering of substitutions follows the chain as printed. These are yes or no findings as the source states them, for the method shown. For part of these data: In cells and extracts the contact can be indirect. Some results given as binding are weak or reduced against the parent protein; the word gives no strength. For part of these data: Where a sequence is shown, tags or fusion partners need not be part of it.

The target in test [1] is PKM1-Myc (pyruvate kinase M, isoform 1, wild type) (UniProt P14618). Description: co-IP; 293T cells co-transfected with PKM1-Myc and NUDT13-Flag WT or mutant plasmids (Figures 2C, 4A, 6C, 7C); Olaparib treatment did not affect the interaction (Figure S9O, cells not told).
Test [2] has the same target. Description: co-IP; truncated NUDT13 and PKM1 constructs (Figures S7B-E, S11B); cells not told.
Another test has as its target PKM1 241-408 AA region (UniProt P14618). Described as above.
The target of test [3] is PKM2 (as tested by co-IP) (UniProt P14618). Description: co-IP; test of PKM2 with NUDT13; cells and panel not told (Figure 2C-D; Figure S3C).
In test [4] the target is PKM1-Myc (pyruvate kinase M, isoform 1, wild type) (UniProt P14618). The experiment in a line: co-IP; exogenous NUDT13-Flag and PKM1-Myc in nuclear extracts from 293T cells (Figure 2H).
The next test has as its target PKM1 in SW480 cells (UniProt P14618). The experiment in a line: co-IP; SW480 cells (Figure 2D).
The target of test [5] is PKM2 (as used in in vitro pull-down assays) (UniProt P14618). Description: pull-down; in vitro reciprocal pull-down assays, Coomassie blue staining (Figure 2E); both purified.
Test [6] deals with purified recombinant PKM1 (UniProt P14618). The description is as above.
Test [7] addresses PKM2 (as used in in vitro pull-down assays) (UniProt P14618). The experiment in a line: pull-down; in vitro pull-down of N13 peptide with purified PKM1 or PKM2, Coomassie blue staining (Figure 7D); both purified.

B1: NUDT13-Flag △230–252 (protein, UniProt Q86X67)
chain: STYVTKTRYLFELKEDDDACKKAQQTGAFYLFHSLAPLLQTSAHQYLAPRHSLLELERLLGKFGQDAQRIEDSVLIGCSEQQEAWFALDLGLDSSFSISASLHKPEMETELKGSFIELRKALFQLNARDASLLSTAQALLRWHDAHQFCSRSGQPTKKNVAGSKRVCPSNNIIYYPQMAPVAITLVSDGTRCLLARQSSFPKGMYSALAEVESLQYYASQHWPFPSGSLMIACHATVKPGQTEIQVNLRELETAAWFSHDEVATALKRKGPYTQQQNGTFPFWLPPKLAISHQLIKEWVEKQTCSSLPA
Consider B1, for which the binding result in test [1] is reported as “no binding”.

B2: Nudix hydrolase (NH) domain of NUDT13 (domain or fragment, UniProt Q86X67 196-323)
chain: PQMAPVAITLVSDGTRCLLARQSSFPKGMYSALAGFCDIGESVEETIRREVAEEVGLEVESLQYYASQHWPFPSGSLMIACHATVKPGQTEIQVNLRELETAAWFSHDEVATALKRKGPYTQQQNGTF
As to B2, the binding entry in test [2] was “binds”.

B3: NUDT13 residues 206-260 (domain or fragment, UniProt Q86X67 206-260)
chain: VSDGTRCLLARQSSFPKGMYSALAGFCDIGESVEETIRREVAEEVGLEVESLQYY
Consider B3, for which the binding entry in test [2] is “binds”.

B4: NUDT13-Flag (Nudix hydrolase 13, wild type) (protein, UniProt Q86X67 21-352)
chain: STYVTKTRYLFELKEDDDACKKAQQTGAFYLFHSLAPLLQTSAHQYLAPRHSLLELERLLGKFGQDAQRIEDSVLIGCSEQQEAWFALDLGLDSSFSISASLHKPEMETELKGSFIELRKALFQLNARDASLLSTAQALLRWHDAHQFCSRSGQPTKKNVAGSKRVCPSNNIIYYPQMAPVAITLVSDGTRCLLARQSSFPKGMYSALAGFCDIGESVEETIRREVAEEVGLEVESLQYYASQHWPFPSGSLMIACHATVKPGQTEIQVNLRELETAAWFSHDEVATALKRKGPYTQQQNGTFPFWLPPKLAISHQLIKEWVEKQTCSSLPA
For B4, the binding result with PKM1 241-408 AA region is “binds”; in test [3] it was “no binding”; in test [4] it was “binds”; in test [1], “binds”.

B5: NUDT13 in SW480 cells (protein, UniProt Q86X67 21-352)
chain: B4 chain
Turning to B5, the binding result in the test with PKM1 in SW480 cells is “binds”.

B6: NUDT13-Flag EQ mutant (E245/248/249Q) (protein, UniProt Q86X67 21-352)
chain: B4 chain with E225Q, E228Q, E229Q
B6: the binding result in test [1] is reported as “binds”.

B7: purified NUDT13 (recombinant hNUDT13) (protein, UniProt Q86X67 21-352)
chain: B4 chain
For B7, the binding result was “no binding” in [5] and “binds” in [6].

Consider GFCDIGESVEETIRREVAEEVGL (peptide, UniProt Q86X67 230-252) [N13 peptide (mimic peptide of NUDT13 230–252 AA)], for which the binding entry in test [7] is reported as “no binding”.
